{"source": "PubChem BioAssay AID662", "about": "(National Center for Advancing Translational Sciences (NCATS), 2007)", "note": "Among all 71,000 compounds or so, about 1,800 (2.5%) were called active. The inconclusive results got no clear call from the source; some entries with a clear call stand among them for comparison. Calls come from the whole dose curve; as a rule, active = well fitted activation curve with a large enough effect in the signal ratio, with a control signal flat (not every such curve was filed as active); inconclusive = small, poorly fitted or top-dose-only effect, or effect the other way, or a change in a side signal; inactive = flat fitted curve, though single readings scatter; the % refers to the signal ratio. A potency beside an inconclusive call is a rough fit, not a confirmed value. Potency is the fitted concentration of half-maximal effect; tags give direction and shape of the fitted curve.", "data": [{"assay": "Cell signaling CRE-BLA (Fsk stim); for activity change, negative = inhibition: % of control where 0% means no effect", "settings": "CHO CRE-bla reporter (cAMP response element driving beta-lactamase), forskolin EC10, beta-lactamase ratio; activity change, negative = inhibition: at 38.2 µM (top of the series) unless noted", "procedure,_shortened": "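AC50 values, positive or negative, reflect shifts in EC10 NKH 477-induced CRE-bla reporter activity in CHO cells. Incubation lasted 3 h at 37 °C before CCF4 substrate (2 h, room temperature) and ratiometric 460/530 nm reading.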", "values": [{"smiles": "CC(C)C(=O)NC(c1ccco1)c1ccc2cccnc2c1O", "note": "(centres undefined)", "Potency": "inactive"}, {"smiles": "Nc1c(C(=O)NCc2ccco2)nnn1Cc1ccccc1", "activity change, negative = inhibition": "inconclusive: -9.29%"}, {"smiles": "COc1ccc(C(=O)c2coc3ccc(O)c(CN(C)C)c23)cc1", "Potency": "inactive"}, {"smiles": "Nc1cc(OC(=O)c2ccccc2Br)nn1S(=O)(=O)c1ccccc1", "Potency": "inconclusive: 12.6 µM [falling, partial curve]"}, {"smiles": "COc1ccccc1OCC(=O)N(Cc1nc(-c2ccc(Cl)cc2)no1)C(C)C", "activity change, negative = inhibition": "inconclusive: -24.5%"}, {"smiles": "COc1ccc(CCNC(=O)C2CCCN(c3nn4c(=O)cc(C)nc4s3)C2)cc1OC", "note": "(centres undefined)", "activity change, negative = inhibition": "inconclusive: -2.45%"}, {"smiles": "CCc1nc2oc3ccccc3c(=O)c2c(=O)n1CCOC", "Potency": "inactive"}, {"smiles": "CN(c1cccc(NC(=O)Cc2ccccc2)c1)S(C)(=O)=O", "activity change, negative = inhibition": "inconclusive: 0.117%"}, {"smiles": "Nc1[nH]nc2nc(N3CCCC3)nc(-c3ccccc3)c12", "Potency": "inconclusive: 7.94 µM [rising, partial curve, poor fit]"}, {"smiles": "COc1ccccc1CCn1c(=O)c(-c2cccs2)nc2cncnc21", "Potency": "inconclusive: 15.8 µM [rising, partial curve]"}, {"smiles": "CC1=C(C(=O)OCc2ccccc2)C(c2ccco2)n2ncnc2N1", "note": "(centres undefined)", "Potency": "inconclusive: 5.01 µM [rising, partial curve]"}, {"smiles": "CCCCN(CC)C(=O)CSc1cc(=O)n(C)c2ccccc12", "activity change, negative = inhibition": "inconclusive: 11.2%"}, {"smiles": "FC(F)(F)c1ccccc1-c1ccc2ncnc(NCc3cccnc3)c2c1", "Potency": "inconclusive: 10 µM [rising, partial curve]"}, {"smiles": "Clc1ccccc1-c1nccc(NCc2ccccc2)n1", "Potency": "inactive"}, {"smiles": "CCN(C1CCCCC1)S(=O)(=O)c1cn(C)c(=O)n(C)c1=O", "Potency": "inconclusive: 12.6 µM [rising, partial curve]"}, {"smiles": "CCN1CCN(c2nc3c(c(=O)n(C)c(=O)n3C)n2CCSc2nccc(C)n2)CC1", "Potency": "inconclusive: 7.94 µM [rising, partial curve]"}, {"smiles": "Nc1ncc(-c2ccccc2)n1CC1CCCO1", "note": "(centres undefined)", "Potency": "inconclusive: 2.51 µM [rising, single point]"}, {"smiles": "Brc1ccc(-c2nnc3n2-c2ccccc2CC3)cc1", "Potency": "inconclusive: 12.6 µM [rising, single point]"}, {"smiles": "CN(C)/C=C/C(=O)c1nnn(C2CCCCC2)c1NC1CCCCC1", "Potency": "inconclusive: 12.6 µM [falling, single point]"}, {"smiles": "C=CCN=C(NC#N)SCC(=O)c1cccc(OC)c1", "Potency": "inconclusive: 12.6 µM [falling, partial curve]"}, {"smiles": "COc1ccc(CCNC(=O)C2CC(=O)N(c3ccc(F)cc3)C2)cc1OC", "note": "(centres undefined)", "activity change, negative = inhibition": "inconclusive: -11.9% [at 7.6 µM]"}, {"smiles": "Cc1nn(-c2ccccn2)c2c1C(c1ccsc1)C1=C(CCCC1=O)N2", "note": "(centres undefined)", "Potency": "active: 3.16 µM"}, {"smiles": "CN(C)C(=O)N1CCCC(C(=O)NCc2ccccc2Cl)C1", "note": "(centres undefined)", "Potency": "inactive"}, {"smiles": "COc1ccc(-n2nnnc2SCC(=O)Nc2nnc(C)s2)cc1OC", "Potency": "inconclusive: 12.6 µM [rising, single point]"}, {"smiles": "O=C(O)[C@@H]1CSC2(CCSC2)N1", "note": "(some centres undefined)", "Potency": "inconclusive: 15.8 µM [rising, single point]"}, {"smiles": "COC(=O)c1cc(=O)nc2sccn12", "activity change, negative = inhibition": "inconclusive: 18.8% [cytotoxic]"}, {"smiles": "COc1ccc(-c2csc(NC(C)=O)n2)cc1OC", "Potency": "inconclusive: 25.1 µM [rising, single point]"}, {"smiles": "COc1ccc(Cl)cc1C(=O)n1nc(C)cc1C", "activity change, negative = inhibition": "inconclusive: 18.8% [at 7.6 µM]"}, {"smiles": "COc1ccc(S(=O)(=O)Nc2cc(Cl)ccc2OC)cc1", "Potency": "inconclusive: 5.01 µM [rising, single point]"}, {"smiles": "Cc1nc(NCCNC(=O)c2ccco2)c2c(C)c(C)sc2n1", "Potency": "active: 5.01 µM"}, {"smiles": "CC1CN(C(c2cccs2)c2sc3ncnn3c2O)CC(C)O1", "note": "(centres undefined)", "Potency": "inactive"}, {"smiles": "COc1ccccc1C(=O)Nc1ccc2c(c1)nc1n2CCSC1", "Potency": "inconclusive: 0.251 µM [rising, full curve, poor fit]"}, {"smiles": "CCOc1ccc2cc(C#N)c(SCC(=O)N3CCC(C)CC3)nc2c1", "Potency": "inactive"}, {"smiles": "CC(C)(C)c1ccc(OCC(=O)O)c(Cl)c1", "activity change, negative = inhibition": "inactive: -11.9% [at 7.6 µM]"}, {"smiles": "CN1CCN(c2ncnc3ccc(-c4cccc(NS(C)(=O)=O)c4)cc23)CC1", "activity change, negative = inhibition": "inconclusive: 28.3%"}, {"smiles": "COc1ccc(C)cc1NC(=O)C1CCCN1S(=O)(=O)c1ccc2c(c1)CCC(=O)N2", "note": "(centres undefined)", "Potency": "inactive"}, {"smiles": "CC(=O)c1cccc(NC(=O)C2CCCN(S(=O)(=O)c3ccc(F)cc3)C2)c1", "note": "(centres undefined)", "Potency": "inconclusive: 12.6 µM [falling, partial curve]"}, {"smiles": "Cc1cc(C)nc(-n2nc(C)c(C3(O)C(=O)Nc4ccccc43)c2N)n1", "note": "(centres undefined)", "activity change, negative = inhibition": "inconclusive: -17.3%"}, {"smiles": "CCCCn1c(SCC(=O)c2ccc(OC)cc2OC)nc2cc(S(N)(=O)=O)ccc21", "Potency": "inconclusive: 12.6 µM [rising, partial curve]"}, {"smiles": "O=[n+]1c2c(n([O-])c3c1CCCC3)CCCC2", "activity change, negative = inhibition": "inconclusive: 22.8% [at 7.6 µM]"}, {"smiles": "COC(=O)CSc1nc(N2CCOCC2)c2c(c1C#N)CC(C)(C)N(C)C2", "Potency": "inactive"}, {"smiles": "O=C(CCCCCNc1nc(=S)[nH]c2ccccc12)N1CCN(c2ccccn2)CC1", "activity change, negative = inhibition": "inconclusive: -4.85%"}, {"smiles": "COCCn1cc(C(=O)c2ccccc2OCC(=O)Nc2cc(C)on2)cc(C#N)c1=O", "Potency": "inconclusive: 25.1 µM [rising, single point]"}, {"smiles": "Clc1cc(Cl)c(OCc2nc(-c3ccccn3)no2)cc1Cl", "Potency": "inconclusive: 12.6 µM [rising, single point]"}, {"smiles": "COc1cccc(C2CC(c3c(F)cccc3Cl)n3nc(N)nc3N2)c1", "note": "(centres undefined)", "activity change, negative = inhibition": "inconclusive: -7.61%"}, {"smiles": "CO[C@]1(NC(=O)CSCC#N)C(=O)N2C(C(=O)O)=C(CSc3nnnn3C)CS[C@H]21", "Potency": "inactive"}, {"smiles": "CCCCOC(=O)C1=C(C)NC2=C(C(=O)CCC2)C1c1cc(OC)ccc1OC", "note": "(centres undefined)", "Potency": "inconclusive: 7.94 µM [rising, partial curve]"}, {"smiles": "CCn1c(SCC(=O)OC(C)C)nnc1-c1cccc(Cl)c1", "Potency": "inconclusive: 10 µM [rising, partial curve]"}, {"smiles": "O=C(O)[C@@H]1[C@@H](C(=O)Nc2ccccc2)[C@@H]2C=C[C@@H]1O2", "activity change, negative = inhibition": "inactive: 10.1% [at 7.6 µM]"}]}]}
